PubChem BioAssay AID1963576 (National Center for Advancing Translational Sciences (NCATS), 2024)
The campaign covered roughly 46,000 compounds. About 60 (0.1%) were called active. About 3% were inconclusive and are not listed. The call rests on the fitted dose curve; in most records, active means well fitted inhibition curve with a large enough effect; inconclusive means small, poorly fitted or top-dose-only effect; inactive means no such curve, though single readings can be large or run the other way. The list shows a part of the results.

Assay: Primary qHTS assay for Inhibitors of ovarian cancer metastasis using an organotypic tumor microenvironment (TME) model. Further: nearly all actives have a fitted effect of over 65% in size.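 On Potency: count of GFP cancer cells still attached after washing and fixation.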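 On activity change, negative = inhibition: plate controls were DMSO wells for no effect and tomatine positive control wells for full effect.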
Conditions: SKOV3ip1-GFP adhesion/invasion on 3D omental model, fluorescence; series mostly up to 45.8 µM; activity change, negative = inhibition: at the top concentration
Method in brief: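 qHTS, 4-pt dose (0.36-46 umol/L); SKOV3ip1-GFP, 1,200 cells/well, no FBS; primary omental fibroblast/mesothelial co-culture 48 h pre-grown; 2 h RT + 16 h 37 C; PBS wash, 4% PFA; GFP count 488/509 nm.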
Potency means the concentration at half of the fitted maximal effect.

Compound	outcome	activity change, negative = inhibition	Potency
O=C(Oc1ccc(Cl)cc1)c1cc(-c2ccc3c(c2)OCCO3)on1	inactive	–	–
O=C(Cn1c(=O)oc2cc(S(=O)(=O)N3CCCCC3)ccc21)NCc1ccc(Cl)cc1	–	inactive: 1.49%	–
CCCCn1c(=NC(=O)c2cc3ccccc3o2)c(C(=O)OCC)cc2c(=O)n3ccccc3nc21	–	inactive: -0.263%	–
CCn1c(=O)c2cc(C(=O)NCCCN3CCC(C)CC3)sc2c2ccccc21	–	inactive: -20.7%	–
Cc1cccc(N2CCN(S(=O)(=O)c3ccc4c(c3)CC(=O)N4C)CC2)c1C	–	inactive: 3.24%	–
COc1ccc(Cn2ccnc2SCC(=O)NCc2ccco2)cc1	–	inactive: -7.35%	–
CCN(CC)CCNC(=O)Cn1nc(C)c2c(C)n(-c3ccccc3)nc2c1=O	–	inactive: 0.951%	–
Cc1ccc(Cl)cc1NC(=O)CSc1nc2ccccc2nc1Cc1ccccc1	inactive	–	–
COc1cccc(-c2noc(COc3ccccc3Cl)n2)c1	–	inactive: 3.65%	–
CCN(C(=O)c1sc2nc3n(c(=O)c2c1C)CCCCC3)c1ccc(OC)cc1	–	inactive: 9.8%	–
COc1ccc(C)cc1NC(=O)NC(C)c1c(-n2cccc2)sc(C)c1C (centres undefined)	inactive	–	–
CCOC(=O)c1c(C)[nH]c(CCC(=O)NC(C)c2ccccc2)c1C (centres undefined)	–	inactive: -8.44%	–
O=C(C1CCCN(S(=O)(=O)c2ccc(Br)s2)C1)N1CCN(c2ccccc2F)CC1 (centres undefined)	–	inactive: -4.33%	–
Fc1ccc(Nc2ncnc3onc(-c4ccc(Cl)cc4)c23)cc1Cl	–	inactive: 9.88%	–
CCOC(=O)c1cn(CC(=O)Nc2ccc(OC)cc2OC)nn1	–	inactive: -6.83%	–
CC(C)Cc1ccc(S(=O)(=O)N2CCN(Cc3noc(CCC(=O)N4CCCCC4)n3)CC2)cc1	inactive	–	–
Cc1c(C(=O)Nc2ccc(-n3c(C)nc4ccccc4c3=O)cc2)cccc1[N+](=O)[O-]	inactive	–	–
CC1=C(c2ccc(F)cc2)S(=O)(=O)N=C1N1CCC(C(=O)NCCc2ccccc2C)CC1	–	inactive: -4.77%	–
COc1ccc(C2C(C(=O)Nc3ccccc3)=C(C)Nc3nc(SCC(=O)c4ccc(C)cc4)nn32)cc1 (centres undefined)	–	inactive: 0.207%	–
O=C(CCN1CCN(C(=O)OCc2cc(Cl)cc(Cl)c2)CC1)c1ccc2[nH]c(=O)oc2c1	–	inactive: -3.67%	–

Compound	outcome	activity change, negative = inhibition	Potency
COC(=O)C(NC(=O)CCc1c(C)nc2c(-c3ccccc3)c(C)nn2c1C)C(C)C (centres undefined)	inactive	–	–
Cc1ccc(Cl)cc1NC(=O)Cn1c(=O)n(CCC(=O)NCc2ccc3c(c2)OCO3)c(=O)c2sccc21	inactive	–	–
Cc1cc2nn(-c3ccc(F)cc3)nc2cc1NC(=O)c1cccc2c(Cl)cccc12	–	inactive: 1.76%	–
Cc1cc(C)nc(-n2nc(C)c3c2NC(=O)CC3c2cccc(O)c2)n1 (centres undefined)	–	inactive: 3.03%	–
CCOc1cc2c(cc1OCC)C(CC(=O)O)N(C(=O)Nc1ccccc1C(F)(F)F)CC2 (centres undefined)	inactive	–	–
CCn1c(C)c(C)c2cc(C(=O)NCc3ccc(F)cc3)ccc21	–	inactive: -9.05%	–
COc1ccc(-n2cc(-c3ccccc3)c3c(Nc4ccc(OC)c(OC)c4)ncnc32)cc1	–	inactive: -5.67%	–
COc1cc(OC)c(NC(=O)Nc2cccc(OCc3cc(=O)n4ccccc4n3)c2)cc1Cl	–	inactive: 11.6%	–
CCOC(=O)c1ccc2c(c1)N(Cc1ccc(F)cc1Cl)C(=O)c1ccccc1S2(=O)=O	–	inactive: 3.82%	–
COc1ccc(-c2oc3c(CC=C(C)C)c(O)cc(O)c3c(=O)c2O)cc1	–	inactive: 5.53%	–
Cc1ccc(CNC(=O)c2nc(SCc3ccccc3C)ncc2Cl)cc1	inactive	–	–
CCC(=O)N1CCc2cc(Br)cc(S(=O)(=O)N3CCN(c4ccccc4OC)CC3)c21	inactive	–	–
CCOC(=O)CC(=O)CSc1nc2ccsc2c(=O)n1Cc1ccccc1	–	inactive: -1.38%	–
Cc1noc(-c2ccc(NC(C)c3ccccc3)c([N+](=O)[O-])c2)n1 (centres undefined)	inactive	–	–
COc1ccccc1NC(=O)c1ccc(CN2C(=O)C(C)=C(c3ccc(C)c(C)c3)S2(=O)=O)cc1	–	inactive: 0.319%	–
O=C1C(Cl)=C(NCCN2CCOCC2)C(=O)c2ncccc21	–	–	active: 5.9 µM
CC1(c2ccccc2)CC(C)(C)N(C(=O)c2cccc(Cl)c2)c2ccccc21 (centres undefined)	–	inactive: 6.96%	–
Cc1ccc(CCNS(=O)(=O)c2c(C)nc3sc(C)c(C)n3c2=O)cc1	–	inactive: -9.54%	–
Cc1cc(C)cc(-n2c(SCC(=O)N3CCOCC3)nc3c([nH]c4ccccc43)c2=O)c1	–	inactive: 6.33%	–
Cc1ccc(CNC(=O)c2ccc(CSCc3cccc(C)c3)o2)cc1	inactive	–	–

Compound	outcome	activity change, negative = inhibition	Potency
CC1CCN(S(=O)(=O)c2ccc3c(c2)N(CC(=O)NCCc2ccccc2)C(=O)CO3)CC1	inactive	–	–
COc1cccc(NC(=O)c2ccc3c(c2)CCN3S(C)(=O)=O)c1	inactive	–	–
O=C1C(=O)N(C2CCN(C(=O)c3ccccc3Cl)CC2)CCN1Cc1ccc(F)cc1	inactive	–	–
COc1cc(=C2C=c3ccccc3=N2)[nH]c1=Cc1[nH]c(C)cc1C	–	inactive: -18.3%	–
Cc1ccc(NS(=O)(=O)c2ccc3[nH]c4c(c3c2)CCCC4)cc1N(C)C	–	inactive: -20.2%	–
Cc1nc2ccn(Cc3cccs3)c(=O)c2cc1C(=O)N1CCN(c2ccccc2F)CC1	–	inactive: -3.96%	–
Cc1nc2nc(NCc3ccc(Cl)cc3)[nH]n2c(=O)c1Cc1ccccc1	–	inactive: 21.6%	–
COc1ccccc1CNC(=O)CCS(=O)(=O)c1ccc2c(c1)CCN2C(C)=O	–	inactive: -6.57%	–
Cc1ccc(Cl)cc1N1CCN(C(=O)Cn2cnc3sc(C)c(S(=O)(=O)N4CCC(C)CC4)c3c2=O)CC1	inactive	–	–
COC(=O)c1scc(-c2ccc(C)cc2)c1S(=O)(=O)N1CCN(c2ccc(C(C)=O)cc2)CC1	inactive	–	–
COc1ccc(C2=CC(c3ccccc3Cl)n3nc(-c4ccc(Cl)cc4)nc3N2)cc1 (centres undefined)	–	inactive: 5.11%	–
CCOC(=O)c1c(C)oc2nc(C)nc(NCc3ccc(F)cc3)c12	–	inactive: -6.49%	–
Cc1ccc(-n2c(=O)c3c(C)c(C)sc3n(CC(=O)NCc3ccccc3)c2=O)cc1C	inactive	–	–
CCN(CC)CCCCNc1ncc2c(n1)N(C)C(=O)N(c1c(Cl)c(OC)cc(OC)c1Cl)C2	–	inactive: -3.35%	–
CCOc1ccc(CCNC(=O)CCCn2c(=O)c3cccn3c3ccccc32)cc1	inactive	–	–
Cc1ccc(CNC(=O)CCCn2c(=O)c3ccccc3n(CC(=O)Nc3ccc(C)c(C)c3)c2=O)cc1	inactive	–	–
COc1ccc(C(=O)Nc2nnc(SCc3cc(=O)c4cc(C)cc(C)c4[nH]3)s2)cc1	–	inactive: -9.96%	–
CCc1ccccc1NC(=O)CCNS(=O)(=O)c1ccc2c(c1)CCN2C(=O)C1CC1	inactive	–	–
Cn1c(=O)c2c(nc(SCC(=O)Nc3ccccc3F)n2Cc2ccc(Cl)cc2)n(C)c1=O	inactive	–	–
